Results on 26 compounds are retold here after PubChem BioAssay AID1508623 (National Center for Advancing Translational Sciences (NCATS), 2021).

The structures appear in SMILES notation. Screen size: about 48,000 compounds; about 450 (0.94%) were called active. About 19% were inconclusive and are not listed. The call rests on the fitted dose curve; in most records, active means well fitted inhibition curve with a large enough effect; inconclusive means small, poorly fitted or top-dose-only effect; inactive means no such curve, though single readings can be large or run the other way. Some of the results follow.

A short description of the assay: Primary qHTS for Identification of Small Molecule Inhibitors of Huntingtin Promoter Activity. Further: nearly all actives have a fitted effect of over 50% in size. The settings on record: HEK293 HTT promoter firefly luciferase reporter (activity 0% = vehicle and -100% = no light), 24 h; series mostly up to 57.5 µM; activity change, negative = inhibition: at the top concentration. The essentials: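 Firefly luciferase readout (Dual-Glo, 10 min RT) after 24 h, 37 °C compound exposure (final up to 57.5 uM) of HEK293 reporter cells cultured 24 h beforehand; PTC124 at 50 uM final as control inhibitor; activity scaled vehicle 0%, zero RLU -100%.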
As for `COc1ccccc1NC(=O)c1c(-c2ccc(C)cc2)nnc2ccccc12`, the “activity change, negative = inhibition” value was inactive: 10.1%.
As for `COc1ccc(N2CCN(C(=O)Nc3cn(CC(C)C)c(=O)c4ccccc34)CC2)cc1`, the “activity change, negative = inhibition” value is inactive: 1.99%.
For `O=C(Nc1cc(Cl)ccc1Cl)c1ccc2c(c1)N(Cc1cccc(Cl)c1)C(=O)c1ccccc1S2=O` (stereo unspecified) the value was inactive: -18.7%.
As for `O=C(NCc1cccs1)c1ccc2c(c1)sc1nc(-c3ccc(F)cc3)cn12`, the “activity change, negative = inhibition” value was inactive: -9.36%.
For `Cc1nn(-c2ccccc2)c(OC(=O)c2ccccc2)c1S(=O)(=O)c1ccccc1` the value was inactive: -8.46%; for `Cc1ccc2oc(C(=O)Nc3c(C(=O)Nc4cccc(Cl)c4)oc4ccccc34)cc(=O)c2c1`, inactive: -10.5% [at 11.5 µM]; for `Cc1ccccc1Cn1ccn(-c2ccc(F)c(F)c2)c(=O)c1=O`, inactive: -3.22%.
For `CCOC(=O)CSc1nc2ccccc2c(=O)n1-c1ccc(C(=O)NCCOC)cc1` the value was inactive: 6.77%; for `O=C(Nc1ccccc1C(F)(F)F)N1CCOc2ccc(Cl)cc21`, inactive: -8.52%; for `Cc1ccc(N2C(=O)CS(=O)(=O)C23C(=O)Nc2ccccc23)cc1C` (stereo unspecified), inactive: -10.2%.
`CCOC(=O)N1CCC(NC(=O)c2ccc3c(c2)N(Cc2ccccc2C)C(=O)c2ccccc2S3=O)CC1` (stereo unspecified): the “activity change, negative = inhibition” value was inactive: -21.1%.
For `CN(Cc1nc(-c2ccc(Cl)cc2)no1)S(=O)(=O)c1ccccc1` the value was inactive: -1.61%; for `COc1ccccc1N1CCN(C(=O)c2cc3c(=O)n(Cc4cccs4)ccc3nc2C)CC1`, inactive: -28.8%; for `CCOC(=O)N1CCc2c(sc3c2c(=O)n(-c2ccc(CC)cc2)c(=O)n3Cc2ccc(F)cc2Cl)C1`, inactive: -15.3%.
For `Cc1ccc(-n2ncc3c(NCCCn4ccnc4)ncnc32)cc1C` the value was inactive: 12.8%.
Then `CCOc1ccc2nc(N3CCCC(C(=O)NCCc4ccc(Cl)cc4)C3)sc2c1` (stereo unspecified), with inactive: -14.7%.
With `Nc1nc2[nH]cc(CCc3ccc(C(=O)N[C@@H](CCC(=O)O)C(=O)O)cc3)c2c(=O)[nH]1`, the “activity change, negative = inhibition” value is inactive: -14.2%.
For `CC(C)C(=O)Nc1nnc(S(=O)(=O)N2CCc3ccccc32)s1` the value was inactive: -20%; for `Cc1cccc(N2CCN(c3ccc4cc(S(=O)(=O)N5CCC(C)CC5)ccc4n3)CC2)c1C`, inactive: 2.57%.
`CCOc1ccc(NC(=O)Cn2nc(Cc3cccnc3)c3ccccc3c2=O)cc1`: the “activity change, negative = inhibition” value was inactive: 5.63%.
With `CCOC(=O)c1c(C)oc2ncnc(Nc3cccc(C(F)(F)F)c3)c12`, the “activity change, negative = inhibition” value is inactive: -12.9%.
For `CCc1ccc(NC(=O)CC(NCc2cccnc2)C(=O)O)cc1` (stereo unspecified) the value was inactive: -16%.
Then `O=c1oc2ccccc2cc1-c1cn2cc(Cc3ccc(F)cc3)sc2n1`, with inactive: -0.104%; and `Cc1ccc(OCC(=O)Nc2ccc(OCc3cc(=O)n4c(C)csc4n3)cc2)cc1C`, with inactive: 7.48%; and `Cc1ccc(Cn2ccnc2SCC(=O)NCc2ccccc2)cc1`, with inactive: -18%.
As for `CSc1ccc(CCNC(=O)Cn2nc(C)n3c(cc4sccc43)c2=O)cc1`, the “activity change, negative = inhibition” value is inactive: 6.58%.
